Binding signal (RPM ratio (pull-down/input)) data for 40 sequences are collected here from publication PMC12820563.

The list shows a part of the results. The list includes weakly bound sequences.

For this test, the target named is T1, MBP-FoxP3dN (UniProt Q99JB6).
T1 sequence: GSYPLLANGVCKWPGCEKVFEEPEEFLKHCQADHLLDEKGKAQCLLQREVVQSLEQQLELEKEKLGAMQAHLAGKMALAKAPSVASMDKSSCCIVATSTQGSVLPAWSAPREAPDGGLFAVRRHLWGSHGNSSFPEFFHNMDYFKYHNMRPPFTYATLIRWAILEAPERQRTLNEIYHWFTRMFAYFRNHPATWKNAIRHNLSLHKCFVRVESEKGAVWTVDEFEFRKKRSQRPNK
Description: PD-seq (MBP pull-down with sequencing). To be noted: 20 mM Tris-HCl pH 7.5, 100 mM NaCl, 1.5 mM MgCl2, 0.4 uM protein, 0.1 uM dsDNA library, 30 min, room temperature, amylose pull-down; high values mean tight binding; double strand, one strand shown.
Turning to “GATGATTGTTCTCCCAGCTGATGAATTCTTGCAATCGAGTAAACAAATTTTCCTAATCTTTCTGTTCAAGCGCCATCTAC”, the binding signal (RPM ratio (pull-down/input)) amounted to 2.8.
For “GATGATTGTTCTCCCAGCTGATGAATTGTATGATTCGAGTAAACAAATTTTCCTAATCTTTCTGTTCAAGCGCCATCTAC”, the binding signal (RPM ratio (pull-down/input)) is 2.94.
On to “GATGATTGTTCTCCCAGCTGATGAATTTTATGCGTCGAGTAAACAAATTTTCCTAATCTTTCTGTTCAAGCGCCATCTAC”, for which the binding signal (RPM ratio (pull-down/input)) worked out at 0.925.
On to “GATGATTGTTCTCCCAGCTGATGAATTGCCCGGTTCGAGTAAACAAATTTTCCTAATCTTTCTGTTCAAGCGCCATCTAC”, for which the binding signal (RPM ratio (pull-down/input)) is 0.427.
For the sequence “GATGATTGTTCTCCCAGCTGATGAATTGGATACCTCGAGTAAACAAATTTTCCTAATCTTTCTGTTCAAGCGCCATCTAC”, the binding signal (RPM ratio (pull-down/input)) amounted to 0.525.
For the sequence “GATGATTGTTCTCCCAGCTGATGAATTAACGCCCTCGAGTAAACAAATTTTCCTAATCTTTCTGTTCAAGCGCCATCTAC”, the binding signal (RPM ratio (pull-down/input)) was 0.646.
As to “GATGATTGTTCTCCCAGCTGATGAATTGATGAAATCGAGTAAACAAATTTTCCTAATCTTTCTGTTCAAGCGCCATCTAC”, the binding signal (RPM ratio (pull-down/input)) turned out to be 0.352.
With “GATGATTGTTCTCCCAGCTGATGAATTACCTCGCTCGAGTAAACAAATTTTCCTAATCTTTCTGTTCAAGCGCCATCTAC”, the binding signal (RPM ratio (pull-down/input)) was found to be 0.307.
For the sequence “GATGATTGTTCTCCCAGCTGATGAATTCTGAACGTCGAGTAAACAAATTTTCCTAATCTTTCTGTTCAAGCGCCATCTAC”, the binding signal (RPM ratio (pull-down/input)) worked out at 0.307.
For “GATGATTGTTCTCCCAGCTGATGAATTGTCATCCTCGAGTAAACAAATTTTCCTAATCTTTCTGTTCAAGCGCCATCTAC”, the binding signal (RPM ratio (pull-down/input)) is 0.941.
On to “GATGATTGTTCTCCCAGCTGATGAATTCCTCCTATCGAGTAAACAAATTTTCCTAATCTTTCTGTTCAAGCGCCATCTAC”, for which the binding signal (RPM ratio (pull-down/input)) stood at 0.288.
On to “GATGATTGTTCTCCCAGCTGATGAATTTATGATGTCGAGTAAACAAATTTTCCTAATCTTTCTGTTCAAGCGCCATCTAC”, for which the binding signal (RPM ratio (pull-down/input)) was determined as 3.91.
Turning to “GATGATTGTTCTCCCAGCTGATGAATTAAGCATGTCGAGTAAACAAATTTTCCTAATCTTTCTGTTCAAGCGCCATCTAC”, the binding signal (RPM ratio (pull-down/input)) turned out to be 5.08.
Regarding “GATGATTGTTCTCCCAGCTGATGAATTAGCAGTTTCGAGTAAACAAATTTTCCTAATCTTTCTGTTCAAGCGCCATCTAC”, the binding signal (RPM ratio (pull-down/input)) came out at 0.603.
On to “GATGATTGTTCTCCCAGCTGATGAATTATAGGCATCGAGTAAACAAATTTTCCTAATCTTTCTGTTCAAGCGCCATCTAC”, for which the binding signal (RPM ratio (pull-down/input)) was determined as 0.944.
As for “GATGATTGTTCTCCCAGCTGATGAATTGTACAGATCGAGTAAACAAATTTTCCTAATCTTTCTGTTCAAGCGCCATCTAC”, the binding signal (RPM ratio (pull-down/input)) was 0.319.
Take “GATGATTGTTCTCCCAGCTGATGAATTTGGTTGCTCGAGTAAACAAATTTTCCTAATCTTTCTGTTCAAGCGCCATCTAC”: the binding signal (RPM ratio (pull-down/input)) is 2.96.
Consider “GATGATTGTTCTCCCAGCTGATGAATTAGGGCATTCGAGTAAACAAATTTTCCTAATCTTTCTGTTCAAGCGCCATCTAC”, for which the binding signal (RPM ratio (pull-down/input)) was determined as 5.05.
As for “GATGATTGTTCTCCCAGCTGATGAATTCGACCAATCGAGTAAACAAATTTTCCTAATCTTTCTGTTCAAGCGCCATCTAC”, the binding signal (RPM ratio (pull-down/input)) stood at 0.27.
To “GATGATTGTTCTCCCAGCTGATGAATTTACACATTCGAGTAAACAAATTTTCCTAATCTTTCTGTTCAAGCGCCATCTAC” belongs 0.808; to “GATGATTGTTCTCCCAGCTGATGAATTGCGGCGTTCGAGTAAACAAATTTTCCTAATCTTTCTGTTCAAGCGCCATCTAC”, 1.91.
As for “GATGATTGTTCTCCCAGCTGATGAATTGTTCAACTCGAGTAAACAAATTTTCCTAATCTTTCTGTTCAAGCGCCATCTAC”, the figure is 0.485; as for “GATGATTGTTCTCCCAGCTGATGAATTTAGCGTGTCGAGTAAACAAATTTTCCTAATCTTTCTGTTCAAGCGCCATCTAC”, 4.2; as for “GATGATTGTTCTCCCAGCTGATGAATTTTGACAGTCGAGTAAACAAATTTTCCTAATCTTTCTGTTCAAGCGCCATCTAC”, 0.594.
Turning to “GATGATTGTTCTCCCAGCTGATGAATTAATCAGCTCGAGTAAACAAATTTTCCTAATCTTTCTGTTCAAGCGCCATCTAC”, the binding signal (RPM ratio (pull-down/input)) came to 0.347.
In the case of “GATGATTGTTCTCCCAGCTGATGAATTAAGGAGCTCGAGTAAACAAATTTTCCTAATCTTTCTGTTCAAGCGCCATCTAC”, the binding signal (RPM ratio (pull-down/input)) was found to be 0.186.
“GATGATTGTTCTCCCAGCTGATGAATTCCGTTTATCGAGTAAACAAATTTTCCTAATCTTTCTGTTCAAGCGCCATCTAC”: the binding signal (RPM ratio (pull-down/input)) was 3.08.
As for “GATGATTGTTCTCCCAGCTGATGAATTGGTCAGCTCGAGTAAACAAATTTTCCTAATCTTTCTGTTCAAGCGCCATCTAC”, the figure is 0.344; as for “GATGATTGTTCTCCCAGCTGATGAATTACCCGGCTCGAGTAAACAAATTTTCCTAATCTTTCTGTTCAAGCGCCATCTAC”, 0.196; as for “GATGATTGTTCTCCCAGCTGATGAATTACGCCAGTCGAGTAAACAAATTTTCCTAATCTTTCTGTTCAAGCGCCATCTAC”, 2.27.
As to “GATGATTGTTCTCCCAGCTGATGAATTTCACATGTCGAGTAAACAAATTTTCCTAATCTTTCTGTTCAAGCGCCATCTAC”, the binding signal (RPM ratio (pull-down/input)) worked out at 0.401.
For the sequence “GATGATTGTTCTCCCAGCTGATGAATTGGTGTATTCGAGTAAACAAATTTTCCTAATCTTTCTGTTCAAGCGCCATCTAC”, the binding signal (RPM ratio (pull-down/input)) turned out to be 3.3.
“GATGATTGTTCTCCCAGCTGATGAATTACGGTTATCGAGTAAACAAATTTTCCTAATCTTTCTGTTCAAGCGCCATCTAC”: the binding signal (RPM ratio (pull-down/input)) came out at 1.12.
As for “GATGATTGTTCTCCCAGCTGATGAATTATTCCAGTCGAGTAAACAAATTTTCCTAATCTTTCTGTTCAAGCGCCATCTAC”, the figure is 0.274; as for “GATGATTGTTCTCCCAGCTGATGAATTAAAACAATCGAGTAAACAAATTTTCCTAATCTTTCTGTTCAAGCGCCATCTAC”, 1.47; as for “GATGATTGTTCTCCCAGCTGATGAATTATCCTGTTCGAGTAAACAAATTTTCCTAATCTTTCTGTTCAAGCGCCATCTAC”, 0.313.
Consider “GATGATTGTTCTCCCAGCTGATGAATTGTTAGGGTCGAGTAAACAAATTTTCCTAATCTTTCTGTTCAAGCGCCATCTAC”, for which the binding signal (RPM ratio (pull-down/input)) came out at 0.936.
Turning to “GATGATTGTTCTCCCAGCTGATGAATTAATATATTCGAGTAAACAAATTTTCCTAATCTTTCTGTTCAAGCGCCATCTAC”, the binding signal (RPM ratio (pull-down/input)) is 0.844.
For “GATGATTGTTCTCCCAGCTGATGAATTACGGCAGTCGAGTAAACAAATTTTCCTAATCTTTCTGTTCAAGCGCCATCTAC”, the binding signal (RPM ratio (pull-down/input)) was 0.438.
Consider “GATGATTGTTCTCCCAGCTGATGAATTATCCACCTCGAGTAAACAAATTTTCCTAATCTTTCTGTTCAAGCGCCATCTAC”, for which the binding signal (RPM ratio (pull-down/input)) came to 0.22.
